# Experimental data taken from PubChem BioAssay (Tox21).
# Values joined by “and” are separate entries in the source; they are usually repeats but may differ in a detail not shown here. Identical values can stand only once. The shares of active, inactive and inconclusive entries below differ from those in the screen. A potency beside an inconclusive call is a rough fit, not a confirmed value. Some compounds were tested as several samples or in several runs, with calls that do not always agree. Active and inactive are the calls of the source. Unless noted, calls follow the shape of the full dose curve.
# What was measured:
# [1] = qHTS assay for small molecule agonists of the p53 signaling pathway (AID 651631); conditions: HCT-116 p53RE-bla reporter, beta-lactamase FRET ratio, 16 h; activation: at 73.3 µM (top of the series) unless noted; also: nearly all actives have a fitted effect of over 15% in size
# How it was run: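 HCT-116 cells carrying a beta-lactamase reporter under p53 response elements were dosed with compound for 16 h at 37 °C. LiveBLAzer B/G FRET substrate was then added for 2 h at room temperature, and fluorescence intensity was read to detect pathway agonism.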
# [2] = qHTS assay for small molecule agonists of the p53 signaling pathway - cell viability (AID 651633); also: nearly all actives have a fitted effect of over 30% in size; as to activity change, negative = cytotoxicity: % is scaled to controls: 0 for no effect and ±100 for the full control effect
# How it was run: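 p53RE-bla cells were treated with compound for 16 hours at 37 C. Cytotoxicity was then measured as CellTiter-Glo luminescence after 30 min at room temperature.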
# [3] = qHTS assay for small molecule disruptors of the mitochondrial membrane potential - cell viability (AID 720634); also: nearly all actives have a fitted effect of over 20% in size;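 as to activity change, negative = cytotoxicity: human HepG2 liver cancer cells; % is scaled to controls: 0 for no effect and ±100 for the full control effect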
# How it was run: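 Viability of HepG2 cells is scored from ATP content by luminescence; cells are exposed to compound for 1 hr at 37 C and 5% CO2, then dosed with m-MPI dye before the CellTiter-Glo reagent.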
# [4] = qHTS assay for small molecule disruptors of the mitochondrial membrane potential (AID 720635; active = well fitted curve in the direction sought with a large enough effect in the repeat runs; inconclusive = weak or mixed curves; inactive = no such curve, though single readings can be large; an effect the other way counts as inactive or inconclusive); conditions: HepG2 mitochondrial membrane potential, Mito-MPS dye ratio; ratio activity, negative = MMP loss: at 83.2 µM (top of the series) unless noted
# How it was run: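 HepG2 cells exposed to compound 1 hr at 37C, then Mito-MPS dye 30 min. Ratio read of aggregate (540/590 nm) versus monomer (490/535 nm) fluorescence.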
# [5] = biological target: Glucocorticoid receptor (Homo sapiens) (UniProt P04150); test: qHTS assay to identify small molecule agonists of the glucocorticoid receptor (GR) signaling pathway (AID 720691; active = well fitted activation curve with a large enough effect in the signal ratio in the repeat runs, not every such curve was filed as active; inconclusive = weak or mixed curves, or effect the other way; inactive = no such curve, though single readings can be large or run the other way; the % refers to the signal ratio; as to activation: % is scaled to controls: 0 for no effect and ±100 for the full control effect); conditions: GR-bla HeLa, beta-lactamase reporter ratio, 18 h; activation: at 62.4 µM (top of the series) unless noted
# Chain of UniProt P04150 (P04150 whole entry, looked up): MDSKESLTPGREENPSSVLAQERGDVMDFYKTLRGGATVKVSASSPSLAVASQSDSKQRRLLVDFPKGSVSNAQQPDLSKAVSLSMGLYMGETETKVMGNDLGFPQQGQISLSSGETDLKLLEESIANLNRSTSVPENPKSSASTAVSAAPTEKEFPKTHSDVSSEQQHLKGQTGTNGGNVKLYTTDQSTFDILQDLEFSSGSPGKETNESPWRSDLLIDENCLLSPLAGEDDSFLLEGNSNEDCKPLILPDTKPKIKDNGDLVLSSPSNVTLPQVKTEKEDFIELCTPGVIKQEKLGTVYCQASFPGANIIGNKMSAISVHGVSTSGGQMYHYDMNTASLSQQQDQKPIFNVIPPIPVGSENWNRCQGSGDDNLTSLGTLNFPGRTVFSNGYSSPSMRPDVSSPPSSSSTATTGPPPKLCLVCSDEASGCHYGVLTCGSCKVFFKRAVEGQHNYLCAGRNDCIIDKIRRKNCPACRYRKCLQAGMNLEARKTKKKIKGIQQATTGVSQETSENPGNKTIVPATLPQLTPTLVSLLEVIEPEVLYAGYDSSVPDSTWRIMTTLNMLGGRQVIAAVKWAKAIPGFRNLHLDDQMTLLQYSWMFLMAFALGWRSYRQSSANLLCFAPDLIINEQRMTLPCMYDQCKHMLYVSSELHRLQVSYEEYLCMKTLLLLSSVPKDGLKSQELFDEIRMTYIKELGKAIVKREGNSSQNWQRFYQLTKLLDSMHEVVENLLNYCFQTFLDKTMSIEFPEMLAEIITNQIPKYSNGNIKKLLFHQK
# How it was run: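 Compounds in DMSO, alongside positive controls, were added to GR-bla HeLa reporter cells and incubated 18 h at 37 C; GRE-driven beta-lactamase was detected by fluorescence after 2 h with FRET substrate at room temperature.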
# [6] = biological target: Glucocorticoid receptor (Homo sapiens) (UniProt P04150); test: qHTS assay to identify small molecule antagonists of the glucocorticoid receptor (GR) signaling pathway (AID 720692; active = well fitted inhibition curve with a large enough effect in the signal ratio in the repeat runs, not every such curve was filed as active; inconclusive = weak or mixed curves, or effect the other way; inactive = no such curve, though single readings can be large or run the other way; the % refers to the signal ratio; as to activity change, negative = inhibition: % is scaled to controls: 0 for no effect and ±100 for the full control effect); conditions: GR-bla HeLa, beta-lactamase FRET ratio, dexamethasone-stimulated, 18 h; activity change, negative = inhibition: at 58.5 µM (top of the series) unless noted
# How it was run: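 In a 1536-well cell format, compounds were added 4 h after seeding GR-bla HeLa cells, together with dexamethasone at 5 nM final; reporter activity was measured by FRET-substrate fluorescence following 18 h at 37 C.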
# [7] = qHTS assay to identify small molecule antagonists of the glucocorticoid receptor (GR) signaling pathway - cell viability counter screen (AID 720693; active = well fitted curve in the direction sought with a large enough effect in the repeat runs; inconclusive = weak or mixed curves; inactive = no such curve, though single readings can be large; an effect the other way counts as inactive or inconclusive; also: nearly all actives have a fitted effect of over 55% in size); conditions: GR-bla HeLa viability, CellTiter-Glo luminescence, 18 h, with 5 nM dexamethasone present; viability change, negative = cytotoxic: at 58.5 µM (top of the series) unless noted
# [8] = qHTS assay for identifying genotoxic compounds that show differential cytotoxicity against isogenic chicken DT40 cell lines with known DNA damage response pathways - wild type cell line (AID 743012; active = well fitted curve in the direction sought with a large enough effect in the repeat runs; inconclusive = weak or mixed curves; inactive = no such curve, though single readings can be large; an effect the other way counts as inactive or inconclusive; also: nearly all actives have a fitted effect of over 60% in size); conditions: DT40 wild type chicken cells viability, CellTiter-Glo, 40 h; activity change, negative = cytotoxicity: at 68.4 µM (top of the series) unless noted
# How it was run: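 Viability of DNA repair-proficient chicken DT40 cells was assessed by CellTiter-Glo luminescence following 40 h compound exposure at 37 C/5% CO2.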
# [9] = qHTS assay for identifying genotoxic compounds that show differential cytotoxicity against isogenic chicken DT40 cell lines with known DNA damage response pathways - Rev3 mutant cell line (AID 743014; active = well fitted curve in the direction sought with a large enough effect in the repeat runs; inconclusive = weak or mixed curves; inactive = no such curve, though single readings can be large; an effect the other way counts as inactive or inconclusive; also: nearly all actives have a fitted effect of over 55% in size); conditions: chicken DT40 Rev3-/- viability, CellTiter-Glo, 40 h; activity, negative = cytotoxicity: at 68.4 µM (top of the series)
# [10] = qHTS assay for identifying genotoxic compounds that show differential cytotoxicity against isogenic chicken DT40 cell lines with known DNA damage response pathways - Rad54/Ku70 mutant cell line (AID 743015; active = well fitted curve in the direction sought with a large enough effect in the repeat runs; inconclusive = weak or mixed curves; inactive = no such curve, though single readings can be large; an effect the other way counts as inactive or inconclusive; also: nearly all actives have a fitted effect of over 60% in size); conditions: DT40 Rad54/Ku70 mutant viability, CellTiter-Glo, 40 h; activity change, negative = cytotoxicity: at 66.8 µM (top of the series)
# [11] = qHTS assay for small molecules that induce genotoxicity in human embryonic kidney cells expressing luciferase-tagged ATAD5 - cell viability (AID 651634); also: nearly all actives have a fitted effect of over 25% in size
# How it was run: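 Here HEK293T cells with the ATAD5 luciferase reporter are incubated with test compounds for 15.5 hr, and cytotoxicity is then gauged by measuring protease activity in live cells using fluorescence.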
# [12] = qHTS assay to identify small molecule antagonists of the androgen receptor (AR) signaling pathway - cell viability counter screen (AID 743033; active = well fitted curve in the direction sought with a large enough effect in the repeat runs; inconclusive = weak or mixed curves; inactive = no such curve, though single readings can be large; an effect the other way counts as inactive or inconclusive; also: nearly all actives have a fitted effect of over 45% in size); conditions: AR-bla HEK293 viability, CellTiter-Glo luminescence, 16 h; activity change, negative = cytotoxicity: at 58.5 µM (top of the series)
# Potency is read from the fitted curve at half-maximal effect; tags tell the direction and shape of the fitted curve or compound fluorescence and quenching.
Structure (SMILES),Potency [1],Potency [2],Potency [3],Potency [4],Potency [5],activation [5],"activity change, negative = inhibition [6]",Potency [7],Potency [8],Potency [9],Potency [10],Potency [11],Potency [6],Potency [12],activation [1]
O=C(Nc1ccc(Br)cc1)c1cc(Br)cc(Br)c1O,active: 8.41 µM and active: 1.53 µM and active: 12.2 µM,active: 944 nM and active: 1.08 µM and active: 2.17 µM,"inconclusive: 10.9 µM [cytotoxic, partial curve, poor fit]",active: 1.88 µM and active: 543 nM and active: 545 nM,"inconclusive: 1.94 µM [activator, single point]",inconclusive: 6.24% [phenotype inactive],inconclusive: -73.8%,"inconclusive: 3.01 µM [cytotoxic, full curve] and active: 3.45 µM and active: 2.19 µM","inconclusive: 13.3 µM [cytotoxic, single point] and inconclusive: 68.3 µM [cytotoxic]","inconclusive: 68.3 µM [cytotoxic, single point]","inconclusive: 68.3 µM [cytotoxic, single point]",–,–,–,–
CN(C)S(=O)(=O)N(SC(F)(Cl)Cl)c1ccccc1,"inconclusive: 13.7 µM [cytotoxic, partial curve]","inconclusive: 77 µM [cytotoxic, single point]",active: 61.1 µM,active: 4.86 µM,"inconclusive: 11 µM [falling, full curve]",–,–,"inconclusive: 61.6 µM [cytotoxic, single point]",active: 109 nM,active: 0.154 µM,–,"inconclusive: 61.1 µM [falling, partial curve, poor fit]","inconclusive: 24.5 µM [cytotoxic, partial curve]",active: 3.47 µM,–
CCC[CH2][Sn]([CH2]CCC)([CH2]CCC)[O][Sn]([CH2]CCC)([CH2]CCC)[CH2]CCC,"inconclusive: 0.533 µM [cytotoxic, full curve]",active: 0.533 µM,active: 1.68 µM,–,inconclusive: 0.956 µM [cytotoxic],–,–,active: 1.35 µM,active: 336 nM,–,–,–,"inconclusive: 1.7 µM [cytotoxic, partial curve]",active: 0.603 µM,–
CCOP(=S)(OCC)O/N=C(\C#N)c1ccccc1,"inconclusive: 7.5 µM [falling, full curve]",inactive,inactive and active: 54.5 µM,"inactive and inconclusive: 12.2 µM [activator, partial curve, poor fit]",–,–,–,–,"inconclusive: 68600 nM [cytotoxic, single point]",–,–,–,–,–,–
CO/N=C(\C(=O)OC)c1ccccc1CO/N=C(\C)c1cccc(C(F)(F)F)c1,active: 1.09 µM,"inconclusive: 0.0611 µM [cytotoxic, full curve, poor fit]",active: 21.7 µM,active: 9.69 µM,–,–,–,"inconclusive: 3.89 µM [cytotoxic, partial curve]",–,–,–,inactive,–,"inconclusive: 3.89 µM [cytotoxic, full curve]",–
OCC(c1ccc(Cl)cc1)c1ccc(Cl)cc1,"inconclusive: 68.6 µM [falling, single point]","inconclusive: 54.5 µM [cytotoxic, partial curve, poor fit]","inconclusive: 30.6 µM [cytotoxic, partial curve]",active: 27.3 µM,inconclusive: 61.6 µM,–,–,"inconclusive: 54.9 µM [cytotoxic, single point]",active: 13700 nM,–,–,–,"inconclusive: 54.9 µM [inhibitor, single point]",active: 43.6 µM,–
O=C1C2(Cl)C3(Cl)C4(Cl)C(Cl)(Cl)C5(Cl)C3(Cl)C1(Cl)C5(Cl)C24Cl (centres undefined),active: 60.1 µM,"inconclusive: 65.7 µM [cytotoxic, single point]","active: 1.9 µM and inconclusive: 41.4 µM [cytotoxic, partial curve, poor fit]",active: 536 nM and active: 585 nM,inconclusive: 38.3 µM [cytotoxic] and inconclusive: 46.9 µM [cytotoxic],–,–,active: 24.1 µM and inconclusive: 52.6 µM [cytotoxic],–,–,–,"inconclusive: 67.5 µM [falling, single point] and inconclusive: 65.7 µM [falling, single point]","inconclusive: 38.3 µM [cytotoxic, partial curve] and inconclusive: 59.1 µM [cytotoxic, single point]",–,–
CCc1cccc(C)c1N(C(=O)CCl)[C@@H](C)COC,–,"inconclusive: 68.6 µM [cytotoxic, partial curve, poor fit]","inconclusive: 61.1 µM [cytotoxic, single point]","inconclusive: 0.0433 µM [activator, full curve, poor fit]",–,–,–,–,–,active: 19.3 µM,–,–,–,–,inconclusive: 6.39%
